This is an account of results in ChEMBL document CHEMBL4888484, “Replenishing the malaria drug discovery pipeline: Screening and hit evaluation of the MMV Hit Generation Library 1 (HGL1) against asexual blood stage Plasmodium falciparum ,using a nano luciferase reporter read-out” (2022).

The structures appear in SMILES notation. About 540 (0.36%) of roughly 150,000 compounds showed an effect of 50% or more. This is one part of the list.

This experiment relates to Plasmodium falciparum. Description: Primary screen in NF54 nanoGlo assay, in single point, at 2uM, 72h; a lower Z score goes with more inhibition. The settings on record: timepoint 72 hour. The format is functional, Erythrocyte.
Usually % Inhibition stands for the drop in the measured response relative to a control, in per cent. On to `O=C(CCC1CCCC1)NS(=O)(=O)c1cccc2c1N=S=N2`, for which the “% Inhibition” value is listed as -14% and the Z score turned out to be 1.62.
For `COc1ccc(S(=O)(=O)N[C@@H](C)C(=O)Nc2cc(S(=O)(=O)Nc3ccccc3Cl)ccc2N2CCCC2)cc1` the same measures were 11% and -1.16.
For the compound `O=C1CN(c2ccnc(C(=O)N3CC[C@@H]4CCC[C@@H]43)c2)CCN1`, the “% Inhibition” value is reported as -7% and the Z score is on record as 1.27.
`CCN(CC(=O)NCc1cccs1)CC(=O)Nc1cccc(S(=O)(=O)N2CCCCC2)c1`: the “% Inhibition” value is on record as -9% and the Z score worked out at 0.96.
The corresponding values for `Cc1ccc(NS(C)(=O)=O)c(NC(=O)CC2=CCCCC2)c1` are -11% and 1.54.
`Cc1ccccc1NC(=O)CC(=O)N1CCC(O)(Cn2ccnc2)CC1`: the “% Inhibition” value is listed as -4% and the Z score was 0.74.
For the compound `Cc1nc(C(=O)N2CC[C@H](Oc3ccccc3)C2)c[nH]1`, the “% Inhibition” value is given as -10% and the Z score was determined as 1.09.
`CCOC(=O)c1cn[nH]c1[C@H]1CCN(Cc2nnnn2C(C)(C)C)C1`: the “% Inhibition” value is on record as -7% and the Z score is 1.46.
Take `CCCn1nc(C)cc1CN(C)c1ccc(C(=O)O)cc1NC(=O)c1ccc(Br)cc1`: the “% Inhibition” value is given as -9% and the Z score amounted to 1.45.
As for `CC1CC(N(C)C(=O)CC(N)c2ccccc2)CCN1Cc1ccccc1` (stereo not given), the “% Inhibition” value worked out at 0% and the Z score is recorded as 0.01.
Consider `CC(C)C(=O)NCC1CCN(C(C)C)CC1`, for which the “% Inhibition” value is on record as -8% and the Z score is on record as 1.3.
Regarding `COc1cc(F)c(CN(C)C[C@H]2CCOC2)c(F)c1`, the “% Inhibition” value was -9% and the Z score is 1.54.
For `O=C(NCc1ccncc1)[C@H]1CCCN(c2nc3ccccc3n2CC2CCCCC2)C1` the same measures were -7% and 0.71.
For `CC(C)(CNS(C)(=O)=O)c1cccs1` the same measures were -4% and 0.49.
Consider `CC1(C)OCC[C@@H]1N1N=C(c2ccc(Cl)cc2)CC1=O`, for which the “% Inhibition” value was -7% and the Z score stood at 1.28.
On to `CC(C)N(CC(N)=O)CC(=O)N(C)Cc1ccccc1`, for which the “% Inhibition” value is given as 32% and the Z score was -3.6.
As for `Cc1ccc(Cn2c(C)c(CNC3CCCCCC3)c(C(=O)O)c2C)cc1`, the “% Inhibition” value is listed as -8% and the Z score is 1.51.
For `CC1=NN([C@H](NC(N)=O)c2ccccc2)C(=O)C1(C)C`, the “% Inhibition” value is listed as -10% and the Z score stood at 1.33.
As for `CN(C(=O)n1nnc2ccccc21)c1ccccc1`, the “% Inhibition” value is -1% and the Z score was determined as 0.1.
For the compound `CC[C@@](NC(=O)c1ccncc1)(C(N)=O)C(C)C`, the “% Inhibition” value was -9% and the Z score is recorded as 0.77.
Regarding `COC(=O)c1ccc(-c2nc(-c3cc(C)nc4ccccc34)no2)cc1`, the “% Inhibition” value was -13% and the Z score is on record as 2.04.
On to `O=C(Cc1cccnc1)N1CCN(c2ccccn2)C(=O)C1`, for which the “% Inhibition” value is recorded as -9% and the Z score came to 1.83.
Take `NC(=O)c1cccc2c(-c3ccc(O)cc3)cccc12`: the “% Inhibition” value was -12% and the Z score worked out at 1.52.
Turning to `COCCOC1CCN(C(=O)c2cccc(-c3ccccc3Cl)c2)CC1`, the “% Inhibition” value is on record as -11% and the Z score is on record as 1.9.
Turning to `CCOC(=O)c1cnn(-c2nc3ccccc3[nH]2)c1CN1CCOCC1`, the “% Inhibition” value was -21% and the Z score was 2.74.
The corresponding values for `Cc1ccc(CNC(=O)Cn2cc(-c3noc(-c4cccnc4)n3)nc2C)cc1` are -5% and 0.66.
Turning to `c1ccc2c(c1)CCN(Cc1ccc([C@@H]3CCCO3)s1)C2`, the “% Inhibition” value was -7% and the Z score is reported as 0.68.
In the case of `CCO[C@H]1C[C@@H](O)C12CCN(C(=O)NCc1ccc(OC)cc1)CC2`, the “% Inhibition” value was 10% and the Z score was -1.35.
With `Cc1ccc(CC(=O)N2C[C@H]3CC[C@@H](C2)N(Cc2cscn2)C3=O)cc1`, the “% Inhibition” value is recorded as -14% and the Z score is on record as 1.88.
Consider `CN1C[C@@H](C(=O)Nc2csc(N3CCCCC3)n2)CC1=O`, for which the “% Inhibition” value was found to be 38% and the Z score was -5.12.
The corresponding values for `Cc1noc(CNC(=O)Nc2ncc(C(C)C)s2)n1` are 0% and 0.02.
As to `COc1ccc(CC(=O)NCCc2n[nH]c(-c3ccc(OC)cc3)n2)cc1`, the “% Inhibition” value is reported as -4% and the Z score came to 0.71.
`COCCn1ccc2cc(C(=O)NCC3(c4ccc(OC)cc4)CCOCC3)ccc21`: the “% Inhibition” value was -5% and the Z score worked out at 0.87.
For the compound `CC(C)COC(=O)N1CCN(C[C@@H](C#N)CCC#N)CC1`, the “% Inhibition” value is -10% and the Z score is listed as 0.97.
In the case of `Cn1cc(C(=O)NC(c2ccc(F)cc2)C2CCCO2)cn1` (stereo not given), the “% Inhibition” value is recorded as -10% and the Z score was 1.37.
Consider `CCN(C)C(=O)c1ccc(NCCN2CCOCC2)c(Cl)c1`, for which the “% Inhibition” value is recorded as 8% and the Z score is on record as -1.25.
On to `CC(C)N1CCN(C(=O)CCn2nnc3ccccc3c2=O)CC1`, for which the “% Inhibition” value was -7% and the Z score was found to be 1.21.
Take `CCO[C@H]1COCC[C@@H]1NC(=O)c1cnc(-c2cccnc2)nc1`: the “% Inhibition” value is listed as -6% and the Z score is listed as 1.06.
As to `COC(C)c1nc(C)c(C(=O)N[C@H]2CCCC[C@H]2C(F)(F)F)s1` (stereo not given in full), the “% Inhibition” value is listed as -1% and the Z score worked out at 0.21.
On to `CCOC(=O)c1cc(C2CC2)nc2c1c(=O)n(CC(=O)Nc1cc(C)ccc1C)c(=O)n2C`, for which the “% Inhibition” value amounted to 6% and the Z score is -0.85.
On to `CCCCc1nc(CN2CCC[C@H](Nc3ccc(OC)c(OC)c3)C2)c[nH]1`, for which the “% Inhibition” value is -17% and the Z score is listed as 2.25.
As to `O=C(NCCc1ccc(F)cc1)c1ccnc(OC2CCOCC2)c1`, the “% Inhibition” value is 1% and the Z score is -0.12.
In the case of `O=C(NCc1cccc(CO)n1)c1ccccc1C1CCC1`, the “% Inhibition” value is reported as -6% and the Z score worked out at 1.16.
For `C[C@@H]1CN(C[C@@H]2CN(C(=O)Cc3cc(F)cc(F)c3)C[C@@H]2CO)C[C@H](C)O1` the same measures were 0% and -0.09.
For `Cc1nc2c(C(=O)Nc3ccc4cn(C(C)C)nc4c3)ccnc2[nH]1`, the “% Inhibition” value was found to be 9% and the Z score is reported as -1.46.
For `Cc1cc(C)cc(OCCCN(C)C(=O)c2ncc(F)cc2F)c1` the same measures were -4% and 0.88.
On to `CN(Cc1cn[nH]c1-c1ccc(F)cc1)C(=O)[C@H](N)Cc1ccccc1`, for which the “% Inhibition” value is recorded as -13% and the Z score stood at 2.18.
Regarding `O=c1[nH]nc([C@H]2CCCN(C3CCOCC3)C2)n1-c1ccccc1`, the “% Inhibition” value was found to be 5% and the Z score is reported as -0.63.
For `COc1cccc(N2CCN(C(=O)c3snc(C(=O)NCC(C)C)c3N)CC2)c1` the same measures were 7% and -0.76.
Consider `CCCNC(=N)c1c(C)ncc2c1CCC2`, for which the “% Inhibition” value is recorded as -8% and the Z score is given as 0.93.
Regarding `Cc1nn(C)c(C)c1-c1cc(-c2ccc3[nH]ccc3c2)c(C#N)c(N)n1`, the “% Inhibition” value is -7% and the Z score is on record as 1.37.
The corresponding values for `Cc1nc(C)c(C(=O)N(C)Cc2cc(C(C)C)no2)s1` are -10% and 1.17.
As to `CC(OC(=O)C1CC2CCC1C2)C(=O)NC(N)=O` (stereo not given), the “% Inhibition” value is -8% and the Z score is given as 1.35.
For `CCCN1CCC(NC(=O)CCC2CCCCC2)CC1` the same measures were -13% and 1.19.
With `CCC#CCN1CCC[C@H](CNC(=O)C2CCC2)C1`, the “% Inhibition” value is on record as -7% and the Z score worked out at 0.99.
`O=C(O)[C@@]12CC[C@@H](c3ccccc3)C[C@@H]1CN(Cc1c[nH]cn1)C2`: the “% Inhibition” value was -10% and the Z score came to 1.92.
The corresponding values for `Cn1nncc1-c1csc(NC2CCCCC2)n1` are -16% and 1.36.
Regarding `COC(=O)c1ccc(NC(=O)N[C@H]2CCNC2=O)cc1`, the “% Inhibition” value is on record as -3% and the Z score turned out to be 0.53.
On to `Cc1ccc(NC(=O)NC(C)C(C)n2cncn2)s1` (stereo not given), for which the “% Inhibition” value is reported as -2% and the Z score is on record as 0.21.
Regarding `CN(C)c1nc(N2CCN(C3CCCCC3)CC2)nc2c1CNCC2`, the “% Inhibition” value was -2% and the Z score was determined as 0.35.
The corresponding values for `CC(C)CCNC(=O)c1cccn(-c2ccc(NC(=O)c3ccc(F)cc3)cc2)c1=O` are -18% and 3.05.
Consider `CC[C@@H](CNC(=O)c1cc(C)no1)N1CCCC1`, for which the “% Inhibition” value came out at 0% and the Z score was -0.06.
With `COC(=O)C1=C(c2ccccc2)S/C(=C2/C(=S)C(C)(C)Nc3ccc(C)cc32)S1`, the “% Inhibition” value is recorded as -8% and the Z score was determined as 0.99.
For the compound `CCCN(CCC)S(=O)(=O)N1CCN(CCNC(=O)c2ccco2)CC1`, the “% Inhibition” value was -8% and the Z score worked out at 1.16.
As for `O=C(NCc1nnc2ccccn12)c1n[nH]c2c1CCCC2`, the “% Inhibition” value is on record as -28% and the Z score is recorded as 3.82.
Turning to `O=C(CCc1n[nH]c2c1CCCC2)NCCNS(=O)(=O)c1ccc(Cl)cc1`, the “% Inhibition” value was found to be 5% and the Z score was -1.
As for `Cc1ccc(C)c(NS(=O)(=O)c2c(C)[nH]c(C)c2-c2nnc(C)o2)c1`, the “% Inhibition” value was determined as 15% and the Z score is on record as -1.85.
Consider `O=C(Cc1ccsc1)NCc1cc(C2CC2)ncn1`, for which the “% Inhibition” value was determined as 8% and the Z score is on record as -1.09.
Turning to `CCCOc1ccccc1CN1CCC2(CCC(=O)N(C3CC3)C2)CC1`, the “% Inhibition” value is -11% and the Z score came out at 1.51.
For the compound `O=C(Cn1ccc2ncccc2c1=O)NC[C@H]1CCCO1`, the “% Inhibition” value was 7% and the Z score was -1.22.
In the case of `Cc1cc2n(n1)CCCN2C(=O)Nc1cccc(C)c1C`, the “% Inhibition” value was -12% and the Z score was determined as 1.5.
For `CC(C)n1ncnc1CN1CCC[C@H]1c1ccnn1C` the same measures were 2% and -0.31.
In the case of `Cc1ccc(-c2cc(C(=O)N3CCN(c4ncccn4)CC3)c3ccccc3n2)s1`, the “% Inhibition” value is -16% and the Z score was determined as 2.31.
For `O=C(Cc1nnc(-c2ccccc2)o1)NCC1CC1` the same measures were -12% and 1.58.
Take `O=C(N[C@@H]1CN(CCCc2ccccc2)C[C@H]1CO)C1CCC1`: the “% Inhibition” value was -8% and the Z score is listed as 1.21.
Take `CCc1cc(CN2CC[C@](C(=O)O)(c3ccccc3)C2)on1`: the “% Inhibition” value was -5% and the Z score is on record as 1.13.
For `CCOCCCNC(=O)c1cn(C)nc1[C@H]1CCCN(C(=O)OC(C)(C)C)C1` the same measures were -13% and 1.29.
Take `N[C@H](c1nc(-c2ccco2)nn1-c1cccnc1)C1CCCCC1`: the “% Inhibition” value is on record as -11% and the Z score is 1.28.
For the compound `O=C(NCCc1ccccc1)c1cccc(Oc2cc(-c3ccc(F)cc3)ncn2)c1`, the “% Inhibition” value is -9% and the Z score is listed as 1.14.
The corresponding values for `CC1(C)C[C@H]2c3cccc(C(=O)O)c3C(=O)N2Cc2c(Cl)cccc21` are 31% and -3.5.
The corresponding values for `Cc1cccc(Cl)c1S(N)(=O)=O` are 5% and -0.62.
Turning to `CO[C@@H](C)c1noc(CN(C)Cc2cncc(C(F)(F)F)c2)n1`, the “% Inhibition” value is 5% and the Z score is given as -0.49.
Regarding `Cc1ccc(C)c(N(C(=O)[C@@H]2CCO2)C(C)C)c1`, the “% Inhibition” value is reported as -11% and the Z score worked out at 1.36.
`Cn1c([C@@H]2CCCO2)nc2cc(NC(=O)CC3CCCC3)cc(C(=O)N3CCc4ccccc4C3)c21`: the “% Inhibition” value was 5% and the Z score is -0.85.
As to `O=C1C[C@@]2(CCN(c3nccc4cc(C(F)(F)F)ccc34)C2)CN1`, the “% Inhibition” value is -5% and the Z score amounted to 0.74.
